Results taken from the supplement of paper PMC9151546.
Many values rest on one well or one pass, so single values are uncertain.

Key:
[1] = system: CHO-K1; test: micronucleus frequency (% of nucleated events); higher = more micronuclei (genotoxic)
[2] = system: CHO-K1; test: hypodiploid nuclei frequency (% of nucleated events); higher = more hypodiploid events (aneugenic)
Protocol: (§1)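 Flow-cytometric in vitro micronucleus assay (Litron MicroFlow) in CHO-K1 cells in 96-well plates, 19 concentrations (4.5-200 µM, n=1 per concentration). Without S9, cells were exposed for 24 h and sampled at 48 h. With Aroclor 1254-induced rat liver S9, cells were exposed for 3-4 h and sampled at 27-28 h. Read-outs are %MN and %hypodiploid nuclei relative to nucleated events, and relative survival as the nuclei-to-bead ratio versus the 1% DMSO vehicle control (x100).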

[3] = system: CHO-K1; test: relative survival (nuclei to bead ratio vs DMSO control) (% of vehicle control); higher = more surviving cells
Protocol: as §1
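For hypodiploid nuclei frequency (% of nucleated events) in this document: hypodiploid nuclei gated on a flow cytometer with 488 nm excitation after SYTOX Green staining, cultures at 37 °C, positive controls vinblastine without S9 and cyclophosphamide with S9.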
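For micronucleus frequency (% of nucleated events) in this document: cells lysed with nuclei stained by SYTOX Green, then micronucleus-gated events counted against nucleated events by flow cytometry with 488 nm excitation.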
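For relative survival (nuclei to bead ratio vs DMSO control) in this document: Lysed-cell nuclei stained with SYTOX Green and counted against counting beads by flow cytometry at 488 nm excitation, with vinblastine (no S9) and cyclophosphamide (plus S9) as positive controls.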

Oc1cc(Cl)c(Cl)cc1Cl [2,4,5-Trichlorophenol]
Settings	hypodiploid nuclei frequency, [2] [%]	micronucleus frequency, [1] [%]	relative survival, [3]
concentration: 4.5 (µM), S9 metabolic activation: with S9, exposure time: 3-4 hours	0.26	1.38	100
concentration: 4.5 (µM), S9 metabolic activation: without S9, exposure time: 24 hours	0.44	1.12	85
concentration: 5.63 (µM), S9 metabolic activation: with S9, exposure time: 3-4 hours	0.2	1.16	94.7
concentration: 5.63 (µM), S9 metabolic activation: without S9, exposure time: 24 hours	0.48	1.06	109
concentration: 7.04 (µM), S9 metabolic activation: with S9, exposure time: 3-4 hours	0.18	1.58	97.1
concentration: 7.04 (µM), S9 metabolic activation: without S9, exposure time: 24 hours	0.48	1.5	90
concentration: 8.8 (µM), S9 metabolic activation: with S9, exposure time: 3-4 hours	0.4	1.98	106
concentration: 8.8 (µM), S9 metabolic activation: without S9, exposure time: 24 hours	0.44	1.28	113
concentration: 11 (µM), S9 metabolic activation: with S9, exposure time: 3-4 hours	0.38	1.64	106
concentration: 11 (µM), S9 metabolic activation: without S9, exposure time: 24 hours	0.64	1.34	89.1
concentration: 13.7 (µM), S9 metabolic activation: with S9, exposure time: 3-4 hours	0.46	1.1	108
concentration: 13.7 (µM), S9 metabolic activation: without S9, exposure time: 24 hours	0.36	0.98	88.1
concentration: 17.2 (µM), S9 metabolic activation: with S9, exposure time: 3-4 hours	0.46	3.64	83.3
concentration: 17.2 (µM), S9 metabolic activation: without S9, exposure time: 24 hours	0.56	1.16	104
concentration: 21.5 (µM), S9 metabolic activation: with S9, exposure time: 3-4 hours	0.44	4.14	70.9
concentration: 21.5 (µM), S9 metabolic activation: without S9, exposure time: 24 hours	0.54	1.08	103
concentration: 26.8 (µM), S9 metabolic activation: with S9, exposure time: 3-4 hours	0.32	2.7	57.6
concentration: 26.8 (µM), S9 metabolic activation: without S9, exposure time: 24 hours	0.68	1.78	91
concentration: 33.6 (µM), S9 metabolic activation: with S9, exposure time: 3-4 hours	0.36	3.1	52.9
concentration: 33.6 (µM), S9 metabolic activation: without S9, exposure time: 24 hours	0.78	1.58	87.7
concentration: 41.9 (µM), S9 metabolic activation: with S9, exposure time: 3-4 hours	0.24	2.4	44.3
concentration: 41.9 (µM), S9 metabolic activation: without S9, exposure time: 24 hours	0.64	1.2	84.5
concentration: 52.4 (µM), S9 metabolic activation: with S9, exposure time: 3-4 hours	0.38	2.88	42.8
concentration: 52.4 (µM), S9 metabolic activation: without S9, exposure time: 24 hours	0.92	1.26	63.6
concentration: 65.5 (µM), S9 metabolic activation: with S9, exposure time: 3-4 hours	0.56	3.04	51.4
concentration: 65.5 (µM), S9 metabolic activation: without S9, exposure time: 24 hours	1.28	1.3	47.9
concentration: 81.9 (µM), S9 metabolic activation: with S9, exposure time: 3-4 hours	0.32	3.9	51.5
concentration: 81.9 (µM), S9 metabolic activation: without S9, exposure time: 24 hours	–	–	36.6
concentration: 102 (µM), S9 metabolic activation: with S9, exposure time: 3-4 hours	0.18	3.64	49.9
concentration: 102 (µM), S9 metabolic activation: without S9, exposure time: 24 hours	–	–	39.2
concentration: 128 (µM), S9 metabolic activation: with S9, exposure time: 3-4 hours	0.38	4.04	53.1
concentration: 128 (µM), S9 metabolic activation: without S9, exposure time: 24 hours	–	–	34.6
concentration: 160 (µM), S9 metabolic activation: with S9, exposure time: 3-4 hours	0.38	3.68	55.2
concentration: 160 (µM), S9 metabolic activation: without S9, exposure time: 24 hours	–	–	33.9
concentration: 200 (µM), S9 metabolic activation: with S9, exposure time: 3-4 hours	0.38	3.46	54.4
concentration: 200 (µM), S9 metabolic activation: without S9, exposure time: 24 hours	–	–	33.4

O=[N+]([O-])c1ccc(O)c([N+](=O)[O-])c1 [2,4-Dinitrophenol]
Settings	hypodiploid nuclei frequency, [2] [%]	micronucleus frequency, [1] [%]	relative survival, [3]
concentration: 4.5 (µM), S9 metabolic activation: with S9, exposure time: 3-4 hours	0.4	2.3	65.5
concentration: 4.5 (µM), S9 metabolic activation: without S9, exposure time: 24 hours	1.28	1.88	99.4
concentration: 5.63 (µM), S9 metabolic activation: with S9, exposure time: 3-4 hours	0.38	1.82	76.7
concentration: 5.63 (µM), S9 metabolic activation: without S9, exposure time: 24 hours	1.28	2.18	98.7
concentration: 7.04 (µM), S9 metabolic activation: with S9, exposure time: 3-4 hours	0.34	2	92
concentration: 7.04 (µM), S9 metabolic activation: without S9, exposure time: 24 hours	1.36	2.06	89.8
concentration: 8.8 (µM), S9 metabolic activation: with S9, exposure time: 3-4 hours	0.38	2.04	94
concentration: 8.8 (µM), S9 metabolic activation: without S9, exposure time: 24 hours	1.38	2.46	91
concentration: 11 (µM), S9 metabolic activation: with S9, exposure time: 3-4 hours	0.36	2.04	76
concentration: 11 (µM), S9 metabolic activation: without S9, exposure time: 24 hours	1	2.86	100
concentration: 13.7 (µM), S9 metabolic activation: with S9, exposure time: 3-4 hours	0.5	2.68	77.1
concentration: 13.7 (µM), S9 metabolic activation: without S9, exposure time: 24 hours	1.3	1.82	104
concentration: 17.2 (µM), S9 metabolic activation: with S9, exposure time: 3-4 hours	0.22	2.52	86.6
concentration: 17.2 (µM), S9 metabolic activation: without S9, exposure time: 24 hours	1.56	2.2	108
concentration: 21.5 (µM), S9 metabolic activation: with S9, exposure time: 3-4 hours	0.32	1.24	98.3
concentration: 21.5 (µM), S9 metabolic activation: without S9, exposure time: 24 hours	1.12	1.78	118
concentration: 26.8 (µM), S9 metabolic activation: with S9, exposure time: 3-4 hours	0.28	1.38	118
concentration: 26.8 (µM), S9 metabolic activation: without S9, exposure time: 24 hours	1.22	1.8	114
concentration: 33.6 (µM), S9 metabolic activation: with S9, exposure time: 3-4 hours	0.2	1.28	95.5
concentration: 33.6 (µM), S9 metabolic activation: without S9, exposure time: 24 hours	1.34	1.84	110
concentration: 41.9 (µM), S9 metabolic activation: with S9, exposure time: 3-4 hours	0.38	1.82	87.1
concentration: 41.9 (µM), S9 metabolic activation: without S9, exposure time: 24 hours	1.54	1.98	96.5
concentration: 52.4 (µM), S9 metabolic activation: with S9, exposure time: 3-4 hours	0.14	1.78	90.1
concentration: 52.4 (µM), S9 metabolic activation: without S9, exposure time: 24 hours	1.66	2.72	102
concentration: 65.5 (µM), S9 metabolic activation: with S9, exposure time: 3-4 hours	0.28	1.78	83.4
concentration: 65.5 (µM), S9 metabolic activation: without S9, exposure time: 24 hours	1.48	2.24	100
concentration: 81.9 (µM), S9 metabolic activation: with S9, exposure time: 3-4 hours	0.3	1.7	93.6
concentration: 81.9 (µM), S9 metabolic activation: without S9, exposure time: 24 hours	2.28	2.68	96.5
concentration: 102 (µM), S9 metabolic activation: with S9, exposure time: 3-4 hours	0.42	1.78	80.9
concentration: 102 (µM), S9 metabolic activation: without S9, exposure time: 24 hours	2.1	2.72	105
concentration: 128 (µM), S9 metabolic activation: with S9, exposure time: 3-4 hours	0.26	1.88	108
concentration: 128 (µM), S9 metabolic activation: without S9, exposure time: 24 hours	2.74	3.22	81.2
concentration: 160 (µM), S9 metabolic activation: with S9, exposure time: 3-4 hours	0.28	2.3	90.1
concentration: 160 (µM), S9 metabolic activation: without S9, exposure time: 24 hours	2.74	2.76	77.1
concentration: 200 (µM), S9 metabolic activation: with S9, exposure time: 3-4 hours	0.34	2.08	83.7
concentration: 200 (µM), S9 metabolic activation: without S9, exposure time: 24 hours	2.84	3.36	66.8
